Source: the supplement of paper PMC11417369
± gives the standard deviation of the averaged measurements. Some of the results follow.

System: PfAP2-I AP2 domain 3 (GST-tagged)
Test: gcPBM binding intensity (ln(normalized median fluorescence intensity)); higher = stronger DNA binding
How it was run: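 The binding buffer was 1× PBS containing 1% milk, 0.2 mg/ml BSA, 0.5% salmon testes DNA and 0.03% Triton X-100. In it, GST-tagged P. falciparum DNA-binding domains expressed in E. coli were applied for 1 h to an Agilent 4 × 180k array of primer-extended double-stranded 36-bp intergenic genomic probes plus negative controls. Binding intensity, read with Alexa488 anti-GST antibody and a 488 nm scan, is the highest Masliner-normalised natural-log median intensity across replicate spots of either probe orientation.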

Row | Sequence | gcPBM binding intensity (ln)
1 | ATATTAAAAAAATATGCATGCAAATATTATTTTGTA [TGCATGCA_site191] | 7.82 ± 0.59
2 | TATTTAATTAATATAATATTAAACGGAAAAGATAAA [TGCATGCA_negctrl_site148] | 7.89 ± 0.59
3 | TTTTTCTTTTTTTTTTTAATAATATATAACAAATTT [CACACA_negctrl_site1724] | 7.59 ± 0.64
4 | AATCAAATTTTCAAGTCGCACCAAACAAAAAAATGA [CACACA_negctrl_site1397] | 8.51 ± 0.26
5 | TGCCATATATATATTAAATACATAATAATGAGCCTA [GTGCAC_negctrl_site10] | 7.63 ± 0.28
6 | ATAAACAAAAAAAAAAAATATATCAATATATATATA [CACACA_negctrl_site299] | 8.98 ± 0.085
7 | AAAATATATAATTTTTAACACACAAAAAAAAAAAAA [CACACA_site9192] | 8.05 ± 0.65
8 | AGTCATAAATTTATTTGTACATATAATATATATATA [XGTACX_site8489] | 8.98 ± 0.057
9 | GTTATACACATATATACACACATATGTAAATATATA [CACACA_site9080] | 7.83 ± 0.35
10 | CTAATATATGTATGCACACACAATATATACATATTT [CACACA_site3360] | 8.68 ± 0.085
11 | GTCCTTACTAATTAATTTTAGGCCATATAGTTTGTC [XGTACX_negctrl_site199] | 8.03 ± 0.47
12 | ATATTACAAATATAATGTACAAAATATAAATATGCA [XGTACX_site8106] | 7.62 ± 0.3
13 | TTATAATCTATACATATATATGTATGTATGTCTCAA [CACACA_negctrl_site1702] | 7.46 ± 0.52
14 | AAATGCGTATATAACGCATGTATAAGAACATTTTTT [TGCATGCA_site225] | 7.59 ± 0.68
15 | ACATCATTTTTATGTACACACACATATACGTTGAAT [CACACA_site5095] | 8.24 ± 0.37
16 | GAAGTATTATTAAAGCTGCACTTTTCTAAAATAAAC [GTGCAC_site9429] | 8.73 ± 0.28
17 | CATTAATTTAATAAATGTACATAAAATATATATTAT [XGTACX_site8085] | 7.89 ± 0.36
18 | TAAAATTTACAACACTGTACTTGAATTTATCTTTAA [XGTACX_site241] | 7.55 ± 0.5
19 | GCAGTATGCGATCAGTGTACGAGTTATTTTATAAAA [XGTACX_site4764] | 7.71 ± 0.39
20 | AAAAAAAAAAAAAAAAGTACAAAAATATATATGCAT [XGTACX_site8392] | 8.44 ± 0.28
21 | TATGCACAGAAACACACACACACAACCAAAAAATAA [CACACA_site5425] | 8.33 ± 0.57
22 | TGTTATATATAAATTTGTACACATAAATATTTTTAC [XGTACX_site5873] | 7.93 ± 0.44

Row | Sequence | gcPBM binding intensity (ln)
23 | AATAAAAAAAAATGCACACATATATATATATATATA [CACACA_site2421] | 9.67 ± 0.52
24 | TTTTTATTTATATGTATACACACTTTAATTAAAAGT [CACACA_site2525] | 8.12 ± 0.73
25 | CAGAATATATTCTATACATGCAATAGGAAATGTAGC [TGCATGCA_site110] | 8.26 ± 0.81
26 | TCATTCTAAATATAAACACACATAAATATATACATT [CACACA_site3354] | 7.53 ± 0.6
27 | AATATATAATTTTTAACACACAAAAAAAAAAAAAAT [CACACA_site3581] | 7.76 ± 0.35
28 | AAAAAAAAAAAAAAAACACACACATATAATATATTT [CACACA_site8369] | 8.49 ± 0.47
29 | ATTGCGTGATAATAATGTACAAAAAGTAATTTATAT [XGTACX_site8339] | 7.77 ± 0.52
30 | GGTACGTATTTCAATGCATGTCCATGTACATATAAA [TGCATGCA_site208] | 8.17 ± 0.52
31 | CTATAATGTTTCTTTCAACACACAAAAAATGAACAC [CACACA_site8438] | 8.33 ± 0.38
32 | CATACGTTCTAATATATACACACCTGGTATTAATTA [CACACA_site2221] | 7.78 ± 0.59
33 | ATAAATATGTTCTGCACACAAATAAGTGTTTGAAGT [CACACA_site3892] | 8.49 ± 0.47
34 | GAATTTCAACAAAGTAGTACATTTTATAGTAATTGG [XGTACX_site2319] | 7.75 ± 0.47
35 | TAATGGAATAAAAATTGTACATATTTTTTTTTTTTT [XGTACX_site7669] | 7.79 ± 0.54
36 | ACATACATACATACATACATACATACATACATACAT [XGTACX_negctrl_site315] | 8.96 ± 0.38
37 | TATAATATATCTGTAACACACAAAAGTTATATACTT [CACACA_site5578] | 7.62 ± 0.47
38 | TTTTTTTCTCTCTCTACACACAAGGTTTAATTTAAA [CACACA_site1690] | 8.05 ± 0.47
39 | AACTCACGAGGACACACACACATATATATATATATA [CACACA_site4711] | 9.46 ± 0.24
40 | ATATTTATAATATAGAGTACTTACTAAGTTATGGGT [XGTACX_site5405] | 8.07 ± 0.47
41 | AATGTGTAGGTAAGATAATTTTTGTTTTTTTATTTG [CACACA_negctrl_site424] | 7.29 ± 0.83
42 | TTAAACTTGAAACACACACACACACCCATATAAAAA [CACACA_site758] | 8.12 ± 0.29
43 | TGTAGTCTGGAGAAACGTACATAGTATCTGGTAGCT [XGTACX_site2538] | 7.79 ± 0.87
44 | AAATTTTCTTAAGGTTGTACTTTTTGAAAATAATCT [XGTACX_site4894] | 7.67 ± 0.38
